Sequences with one replicate were seen in a single cluster, so their values are uncertain.
system: ATP; assay: switch fluorescence ratio, 500 uM ATP over buffer (Cy3 cluster intensity, sum of 5 cycles each) (fold (ratio)); higher = stronger signal-on switching upon ATP binding; sequences stand for … in TCGTCGGCAGCGTCAGATGTGTATAAGAGACAGTTTTTTTTTTTTTTTTTTTTTTTTT…TC; settings: aptamer strand: ATP DNA aptamer (quencher-CACCTGGGGGAGTATTGCGGAGGAAGG + anchor), 100 nM annealed; ATP concentration: 500 uM; one replicate
Outline: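 After annealing to 100 nM quencher-labelled ATP aptamer, Cy3-labelled switching-strand clusters on a modified Illumina MiSeq flow-cell were imaged in selection buffer. A second image followed after 15 min with 500 uM ATP at 22 °C, and five such buffer/ATP cycles were done, each separated by NaOH stripping and re-annealing. The fluorescence ratio, averaged per switch-domain sequence, is summed target-cycle over summed buffer-cycle Cy3 intensity per cluster, with clusters outside 100-1000 RFU excluded.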
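Further: ATP exposure 15 min at 22 °C before imaging.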

Sequence	switch fluorescence ratio
ACTGGCGAAT	1.01
ACTGGTCCTC	1.07
ACTGGTGCCG	1.01
ACTGGTGCTC	1.09
ACTGGTGGGC	1.03
ACTGTCAGC	1.05
ACTGTTTCGA	1.03
ACTTAAATGA	0.997
ACTTAAGAGC	0.946
ACTTACGAAG	1.22
ACTTACTGCA	1.3
ACTTAGATAA	1.04
ACTTAGCGAC	6.42
ACTTAGGCAA	1.28
ACTTATTTGA	0.994
ACTTATTTGG	0.993
ACTTCCCTTC	2.21
ACTTCCGGGT	1.11
ACTTCCTTAT	1.09
ACTTCTGGGG	1.04
ACTTGACAAA	1.13
ACTTGACTTT	1.08
ACTTGAGAAC	1.01
ACTTGCATGA	1.07
ACTTGCGGGG	1.01
ACTTGCGTAG	1.04

Sequence	switch fluorescence ratio
ACTTGGCCTC	0.995
ACTTGGGAGG	1.02
ACTTGGGCTA	0.959
ACTTGGGGC	0.984
ACTTGGTAGG	1.01
ACTTTAATGT	0.993
ACTTTAGGAC	1.01
ACTTTATGCG	1.04
ACTTTCGCGA	1.28
ACTTTCGGCT	1.01
ACTTTCTTCA	1.05
ACTTTGGGTC	1.03
ACTTTTATAA	1.02
ACTTTTATTA	0.978
ACTTTTCATA	1.01
ACTTTTTGGA	1.01
AGAAAAAAAT	1.02
AGAAAAGGAT	1.02
AGAAACACGT	1.07
AGAAACCGC	1.06
AGAAACGTCG	1.11
AGAAAGAATC	1.04
AGAAATATAG	0.991
AGAAATGGCG	0.983
AGAAATTGCT	0.966
AGAACAATAA	1.02

Sequence	switch fluorescence ratio
AGAACATACC	1.36
AGAACCACAC	1.31
AGAACCAGTG	1.08
AGAACGGAAA	1.02
AGAACGTAAC	1.41
AGAACTGAAA	1.15
AGAACTTATA	1.04
AGAAGATTAC	1.06
AGAAGCACCA	1.12
AGAAGCCAGG	1.13
AGAAGGGAAC	1
AGAAGGGGCC	0.971
AGAAGGTGTA	0.983
AGAAGTAGGA	1.01
AGAATAAGAA	1.03
AGAATAGCTA	1.01
AGAATCCACT	1.02
AGAATCCCGG	1.04
AGAATGTGTC	1.03
AGAATGTGTT	0.974
AGAATGTTCG	0.915
AGAATTAGA	0.964
AGAATTCCTT	0.981
AGACAAAGCA	1.04
AGACAACACA	1.15
AGACAAGAAA	1.05

Sequence	switch fluorescence ratio
AGACACGAGT	1.03
AGACAGACCC	1.06
AGACAGCTGG	1.06
AGACAGTCCG	1.07
AGACAGTCTC	1.01
AGACATGCC	1.07
AGACATGGCT	0.995
AGACCCAGAT	0.963
AGACCCGCGA	2.95
AGACCGAGGG	1.03
AGACCGCGGC	0.968
AGACCTCTTA	0.986
AGACCTGGGA	0.982
AGACGAAACA	1.17
AGACGAACGT	0.941
AGACGAGAGC	1.01
AGACGGGGT	0.957
AGACGGTAGA	1
AGACGTAAAC	1.58
AGACGTAATT	1.08
AGACTAAGTC	0.98
AGACTAGGGG	0.962
AGACTCAGTC	1.01
